The campaign covered roughly 110,000 compounds. About 230 (0.21%) showed an effect of 50% or more. The list shows a part of the results.
These molecules were tested against DPAP1 (Plasmodium falciparum, UniProt Q8IIJ9) (assay: primary screen, percent inhibition; read by cleavage of a fluorogenic dipeptide substrate; higher = more effect of the substance).
Parameters: species or system P. falciparum D10 trophozoite lysates; single well
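Further: 30 min substrate incubation versus DMSO and 10 µM JCP410 controls.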

DPAP1, sequence (Q8IIJ9 whole entry, looked up): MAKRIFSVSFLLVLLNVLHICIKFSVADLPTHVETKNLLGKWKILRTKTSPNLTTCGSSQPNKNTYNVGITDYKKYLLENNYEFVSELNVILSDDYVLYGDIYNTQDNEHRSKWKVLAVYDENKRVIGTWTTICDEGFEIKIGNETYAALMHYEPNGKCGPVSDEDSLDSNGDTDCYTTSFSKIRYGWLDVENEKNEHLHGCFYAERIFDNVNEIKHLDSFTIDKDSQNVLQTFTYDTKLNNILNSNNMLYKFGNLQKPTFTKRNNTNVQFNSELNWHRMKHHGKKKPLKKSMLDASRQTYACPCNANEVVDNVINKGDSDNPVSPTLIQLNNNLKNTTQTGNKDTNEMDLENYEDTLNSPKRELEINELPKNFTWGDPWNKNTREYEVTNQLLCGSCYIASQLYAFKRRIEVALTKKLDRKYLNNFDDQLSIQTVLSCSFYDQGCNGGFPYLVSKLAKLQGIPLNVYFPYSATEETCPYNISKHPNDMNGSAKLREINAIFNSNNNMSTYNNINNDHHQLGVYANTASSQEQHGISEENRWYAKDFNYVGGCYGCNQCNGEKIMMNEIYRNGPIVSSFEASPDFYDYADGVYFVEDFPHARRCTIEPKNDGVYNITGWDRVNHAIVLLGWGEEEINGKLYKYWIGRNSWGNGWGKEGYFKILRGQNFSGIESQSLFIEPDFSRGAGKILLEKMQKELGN

| SMILES | % Inhibition @ 10 uM [%] |
| --- | --- |
| CCN(CCCNC(=O)Cn1nc(C)n2c(cc3sccc32)c1=O)Cc1ccccc1 | 0.137 |
| CCC(=O)NCCc1ccc(OC)cc1 | -1.76 |
| COc1cccc(-c2n[nH]c(SCC(=O)O)n2)c1 | -1.8 |
| COCCn1c(=O)c2sc3ccccc3c2n(Cc2ccc(C)cc2C)c1=O | 4.91 |
| NC(=S)Nc1nc2cc(Cl)cc(Cl)c2nc1O | 6.82 |
| CN(C)CCCNC(=O)/C(=C\c1ccc(-c2ccc([N+](=O)[O-])cc2)o1)NC(=O)c1ccccc1 | -9.6 |
| CCOC(=O)C1CCCCN1Cc1cccc2ccccc12 (centres unmarked) | -0.192 |
| O=C(CCc1nnc2n(Cc3ccccc3)c(=O)c3ccccc3n12)NCC1CCCO1 (centres unmarked) | -6.07 |
| Cc1sc(NC(=O)c2cccnc2)c(C#N)c1C | -0.996 |
| COC(=O)C1=C(C)NC(=O)CC1c1cccc(F)c1 (centres unmarked) | 0.219 |
| CC1(C)CC(=O)C2=C(C1)N=C(S)C(C#N)C2c1ccc(Cl)cc1 (centres unmarked) | 7.12 |
| CCOC(=O)c1c(S(=O)(=O)N2CCC(c3ccccc3)C2)c(C)n(C)c1C (centres unmarked) | -9.47 |
| CCOC(=O)N1CCC(NC(=O)C2CCCN(c3nc4c(C)cc(C)cc4s3)C2)CC1 (centres unmarked) | 1.8 |
| CCN(CC)CCCNC(=O)c1ccc(CN2CC(=O)N3CCCCC3C2=O)cc1 (centres unmarked) | 7.23 |
| CCCN(CCC)C(=O)C1Sc2nnc(C)n2NC1c1ccc(OCC)cc1 (centres unmarked) | -3.53 |
| COc1cccc(S(=O)(=O)NCC(=O)Nc2ccc(C(C)(C)C)cc2)c1 | -5.26 |
| CCCCSc1nc(O)cc(-c2ccccc2)n1 | 5.49 |
| CCOC(=O)C1CCN(Cc2ccc(O)c(OC)c2)CC1 | 1.63 |
| OCCN1CCN(Cc2cccc(C(F)(F)F)c2)CC1 | 0.526 |
| CC(O)CN(Cc1ccc(-c2ccccc2)cc1)CC(C)O (centres unmarked) | -1.5 |
| O=C(Nc1cccc(Cl)c1)N1CCCCCC1 | -4.35 |
| COCCN(CCOC)c1ncnc2c1cnn2-c1cccc(C)c1 | 5.99 |
| Cc1cc(N2CCNCC2)nc(-c2ccccc2O)n1 | 4.42 |
| CC1(C)CC(NC(=O)c2cccs2)CC(C)(CNC(=O)c2cccs2)C1 (centres unmarked) | -6.62 |
| COc1ccccc1CC(=N)NOC(=O)c1cccc(Br)c1 | 2.17 |
| CC(=O)c1ccc(NC(=O)NC2CCCCC2)cc1 | 3.67 |

| SMILES | % Inhibition @ 10 uM [%] |
| --- | --- |
| CNC(=O)/C(=C\c1ccccc1)NC(=O)c1ccccc1Br | -0.759 |
| O=C(O)c1ccc2[nH]c3c(c2c1)CSCC3 | -4.3 |
| COc1ccc(N2C(=O)C(Cl)=C(NCc3ccccc3)C2=O)cc1 | -1.37 |
| COc1ccc(/C=C(\NC(=O)c2ccccc2)C(=O)NCCCn2ccnc2)cc1 | 4.95 |
| COc1cc2c(cc1OC)C1=NNC(=O)C1=NC(C)(C)C2 | 3.04 |
| CCOC(=O)C1=C(CN2CCn3cccc3C2C)NC(=O)NC1c1cccc(OC)c1OC (centres unmarked) | 0.44 |
| CCCOc1ccc(C(=O)ON=C2CCN(C)CC2)cc1 | -0.615 |
| CCN(CC)C1=NC=CC(c2ccccc2)=CC1SC (centres unmarked) | -4.06 |
| Cn1nc(C(=O)n2ccnc2)c2c1-c1ccccc1SC2 | -1.72 |
| FC(F)(F)c1cccc(N2CCN(Cc3c[nH]c4ccccc34)CC2)c1 | -5.65 |
| COc1ccccc1Nc1nc2ccccc2n1C | 1.92 |
| Cc1ccc(C2(c3ccc(C)cc3)CC2C(=O)Nc2nccs2)cc1 (centres unmarked) | -1.91 |
| COc1cc(CN2CCNCC2CCO)cc(OC)c1 (centres unmarked) | -4.78 |
| COc1ccc(-c2noc(CNS(=O)(=O)c3ccc(C)cc3)n2)cc1 | 2.14 |
| O=C(COc1ccccc1)Nc1ccccc1C(=O)Nc1ccccc1 | -0.795 |
| Cc1ccccc1OCC(=O)Nc1ccc(S(=O)(=O)N2CCCC2)cc1 | 0.755 |
| CC1=C(C(=O)Nc2ccc(Br)cn2)C(c2ccc(F)cc2)C2=C(O)CC(C)(C)CC2=N1 (centres unmarked) | -5.79 |
| Cc1cccc(Cc2c(C)nc3nc(SCC(=O)NCc4ccc5c(c4)OCO5)nn3c2C)c1 | 0.813 |
| O=C(O)CCC(=O)N1N=C(c2cccs2)CC1c1cccs1 (centres unmarked) | 3.35 |
| CCN1CCC(NCCc2ccccc2F)CC1 | -3.6 |
| COc1ccc(-c2noc(CN3CCCC(C(=O)NCc4ccco4)C3)n2)cc1OC (centres unmarked) | -2.71 |
| COc1ccc(/C=N/N=C(\N)c2nonc2N)c(OC)c1 | 0.146 |
| Cc1ccc(C(=O)Nc2ccc(S(=O)(=O)N3CCOCC3)cc2)cc1S(=O)(=O)N1CCCC1 | 4.75 |
| Cn1c(=O)c2c(nc(CN3CCC(Cc4ccccc4)CC3)n2Cc2ccc(F)cc2)n(C)c1=O | 1.23 |
| Cc1cccc(C(=O)NC2CCN(Cc3ccccc3)CC2)c1 | 3.66 |
| CCCC(/C(=N\O)c1ccccc1)n1cncn1 (centres unmarked) | 0.986 |

| SMILES | % Inhibition @ 10 uM [%] |
| --- | --- |
| NC(=O)C1CCN(C(=O)c2ccc(C#Cc3ccccc3)cc2)CC1 | -1.32 |
| CCOc1ccc(NC2=NC(=O)C(CC(=O)Nc3ccccc3F)S2)cc1 (centres unmarked) | -2.32 |
| O=C1Nc2ccccc2C(O)(C(=O)NCc2ccco2)N1c1ccccc1 (centres unmarked) | -9.13 |
| O=C(C1CCN(c2nnc(N3CCCC3=O)s2)CC1)N1CCN(Cc2ccccc2)CC1 | -2.85 |
| Cc1ccc(CNC(=O)c2cc(-c3ccccn3)nc3ccccc23)cc1 | -0.406 |
| CCOC(=O)c1[nH]c(C)c(C(=O)NCC2CCCO2)c1C (centres unmarked) | -1.28 |
| C/C=C/C(=O)N1CCN(c2ccc([N+](=O)[O-])cc2)CC1 | -4.94 |
| CCN(CC)CCN(C)C1CCC(C)CC1 (centres unmarked) | -1.56 |
| Cc1c(O)ccc2c(=O)c(Oc3ccc(Cl)cc3)c(C(F)(F)F)oc12 | -1.42 |
| CCCNC(=O)C1CCCN(c2nn3cc(-c4ccc(C)cc4)nc3s2)C1 (centres unmarked) | -3.6 |
| COCCNc1nc2c(S(=O)(=O)c3c(C)cc(C)cc3C)nnn2c2ccccc12 | -3.08 |
| Cc1ccc(N2C(=O)Cn3c2nc2c3c(=O)n(C)c(=O)n2C)cc1C | 0.528 |
| COCCNC(=O)Cn1c(C)cc2ccccc2c1=O | -4.23 |
| COc1ccc(C(=O)C2=C(O)C(=O)N(c3ccccn3)C2c2cccnc2)cc1 (centres unmarked) | -2.34 |
| O/N=C1\CCCc2sc3c(c21)/C(=N/O)CCC3 | 0.708 |
| CCN(CC)C(=O)C(=O)c1c(-c2ccccc2)[nH]c2ccccc12 | -0.703 |
| Cc1ccc(-c2cn3nc(N4CCC(C(=O)N5CCN(c6ccccn6)CC5)CC4)sc3n2)cc1 | 9.68 |
| Cc1c(C(=O)N2CCC3(CC2)OCCO3)sc2ncn(CC(=O)N3CC(C)CC(C)C3)c(=O)c12 (centres unmarked) | 2.8 |
| CCN1CCCC1CNC(=O)C1CCN(C(=O)c2c(C)nn(-c3ccccc3)c2-n2cccc2)CC1 (centres unmarked) | 4.95 |
| Cc1ccc(F)cc1NC(=O)Cn1nc(C(F)(F)F)cc1C | -1.38 |
| c1ccc2c(c1)OCCOCCOCCOCCOc1ccccc1OCCOCCOCCO2 | -3.97 |
| CCCCCCn1c(SCC)nc2c1c(=O)[nH]c(=O)n2C | 4.11 |
| Cc1nc2c(c(C)nn2C)c(C)c1CCC(=O)NCCC(C)C | -10 |
| CCC1=NN2C(=N)/C(=C\c3cccn3-c3ccc(OC)c(Cl)c3)C(=O)N=C2S1 | -1.54 |
| Cc1onc(-c2c(Cl)cccc2Cl)c1C(=O)N1CCOCC1 | 8.19 |
| O=C(CSCc1cccc(Br)c1)Nc1ccc2c(c1)OCCO2 | 1.42 |

| SMILES | % Inhibition @ 10 uM [%] |
| --- | --- |
| CC(C)(O)C1C(N2CCOCC2)C(C)(C)S1(=O)=O (centres unmarked) | -2.51 |
| CCOc1ccc(S(=O)(=O)N2CCSC2c2ccc(OC)c(OC)c2)cc1 (centres unmarked) | 25.4 |
| CC(C)CCNc1cnn(C23CC4CC(CC(C4)C2)C3)c(=O)c1Cl | 0.0579 |
| CCOC(=O)N1CCN(C(=O)c2cnn3ccccc23)CC1 | -2.92 |
| Cc1cc(C)cc(Oc2nc3ccccn3c(=O)c2/C=C(\C#N)C(=O)NCc2ccccc2)c1 | -3.23 |
| COC(=O)C1=C(C)NC(=O)NC1c1ccc(Cl)c(Cl)c1 (centres unmarked) | -0.294 |
| CN(C1CCCCC1)C1CCN(Cc2ccccc2)CC1 | -1.15 |
| Cc1ccc(N2C(N)=C(C#N)C(c3ccc4c(c3)OCO4)C3=C2CC(C)(C)CC3=O)cc1 (centres unmarked) | -0.305 |
| CC1=C(C)CC(C(=O)c2ccccc2)C(C(=O)O)C1 (centres unmarked) | 4.22 |
| C=CCNC(=O)c1ccccc1NS(=O)(=O)c1ccc(C)cc1 | 0.727 |
| Cc1oc(-c2ccc(Cl)cc2)nc1CN1CCC(C(=O)NCc2ccco2)CC1 | -1.05 |
| CCCN1C(=O)c2ccccc2NC1c1ccc(OC)cc1OC (centres unmarked) | -9.6 |
| O=C(O)c1cc(S(=O)(=O)N2CCCCCC2)ccc1Br | -4.4 |
| CC1=C(C(=O)OC2CCCCCC2)C(c2ccc(C)cc2)NC(=O)N1 (centres unmarked) | 19.2 |
| COc1ccc(-c2cc(C(F)(F)F)n3ncc(C(=O)N4CCCCC4)c3n2)cc1 | -2.6 |
| N#Cc1c(NC(=S)NC(=O)c2ccco2)sc2c1CCCC2 | 38.7 |
| NS(=O)(=O)c1ccc2c(c1)OCCO2 | 1.87 |
| O=c1sc2ccccc2n1COc1ccccc1 | -1.22 |
| Cc1nn(C(C)C(=O)N2CCN(c3ccccn3)CC2)c(=O)c2cc3occc3n12 (centres unmarked) | -2 |
| Cc1c(C(=O)Nc2ccccn2)c(C(=O)Nc2ccccc2)nn1-c1ccc(Cl)cc1 | -10 |
| CCCNC(=O)c1cc2nc(-c3ccccc3)cc(C(F)(F)F)n2n1 | 0.247 |
| CCOCCCNC(=O)c1[nH]c2ccccc2c1Sc1ccc(C)cc1 | -1.49 |
| O=C(O)Cc1cc(C(=O)c2ccc(Cl)cc2)sc1-c1ccccc1 | -4.02 |

From PMC6919601, “Identification of Plasmodium dipeptidyl aminopeptidase allosteric inhibitors by high throughput screening” (PLoS ONE, 2019)
